# Reference: the supplement of paper PMC8728848
# The other results are listed elsewhere or left out.
# B1: PX9937B-bvu-524-33-524 (Bacteroides vulgatus) (protein)
# chain: GTAYWKNPDQFTAFNTGLHALLREKSYNFFLLGEPRADIYGDNPIGGEASQGMERLPFNTINKENVGISNYGDMYKIINQINQMIAKTTETTILTEATQNYYLGEAYGMRAYLYFHLLRSWGDVVLYLDYTEGQNLDLSNITKGVSPATEVMEQIKKDIQASENAFGSDYSFKLGRHFWSAAATQMLKGEAYLWSGRQMNGGNSDYTIAKNAFENVKKADVGLVTSSFKDIFSFENKKNKEMIFTIHNGKDEYEMWGGYYRMRLIPAQDKMVKIYCDENGNSFVGTPDAQLNGLTQLQVRREFYFKGFRNNDTRWTTSLKAVYKKDAQGVVSYFGPITYKFQGTMLEGGSTRSFLDDFPIYRYADCLLQLAMAKVLLGEDPTEEINAVRERAYGSKYFNEHKAEIAYPNDNDPEFYTDNKWMKPDNAGALEAILKERLREFMFEGKRWYDIRLLGWDYVHQYSSAEQSRLLWPIDAGTLTNNSALKQTPGYE
# Key:
# Test in all cases: glycan array binding signal (z-score within array); higher = stronger binding
# Conditions in all cases: glycan notation: IUPAC condensed, linker removed
# [1] = biological target: Neu5Ac(a2-3)Gal(b1-3)GlcNAc(b1-2)Man(a1-3)[GlcNAc(b1-4)][Neu5Ac(a2-3)Gal(b1-3)GlcNAc(b1-2)Man(a1-6)]Man(b1-4)GlcNAc(b1-4)GlcNAc
# In short: (§1)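 Arrays were curated from the Consortium for Functional Glycomics database, 3228 in total, and kept only where the protein sequence was available. Binding is expressed as a within-array Z-score. This score was averaged across arrays of the same protein sequence at different concentrations or buffers and across linkers, and negative values can be read as non-binding.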
# [2] = biological target: Neu5Ac(a2-3)Gal(b1-3)GlcNAc(b1-2)Man(a1-3)[Neu5Ac(a2-3)Gal(b1-3)GlcNAc(b1-2)Man(a1-6)]Man(b1-4)GlcNAc(b1-4)GlcNAc
# In short: as §1
# [3] = biological target: Neu5Ac(a2-3)Gal(b1-3)GlcNAc(b1-3)Gal(b1-3)GlcNAc
# In short: as §1
# [4] = biological target: Neu5Ac(a2-3)Gal(b1-3)GlcNAc(b1-3)Gal(b1-4)GlcNAc
# In short: as §1
# [5] = biological target: Neu5Ac(a2-3)Gal(b1-3)GlcNAc(b1-3)GalNAc
# In short: as §1
# [6] = biological target: Neu5Ac(a2-3)Gal(b1-3)GlcNAc(b1-4)Gal(b1-4)Glc
# In short: as §1
# [7] = biological target: Neu5Ac(a2-3)Gal(b1-3)GlcNAc(b1-6)GalNAc
# In short: as §1
# [8] = biological target: Neu5Ac(a2-3)Gal(b1-3)GlcNAc6S
# In short: as §1
# [9] = biological target: Neu5Ac(a2-3)Gal(b1-3)[Fuc(a1-4)]GlcNAc
# In short: as §1
# [10] = biological target: Neu5Ac(a2-3)Gal(b1-3)[Fuc(a1-4)]GlcNAc(b1-3)Gal(b1-3)[Fuc(a1-4)]GlcNAc
# In short: as §1
# [11] = biological target: Neu5Ac(a2-3)Gal(b1-3)[Fuc(a1-4)]GlcNAc(b1-3)Gal(b1-4)[Fuc(a1-3)]GlcNAc
# In short: as §1
# [12] = biological target: Neu5Ac(a2-3)Gal(b1-3)[GlcNAc(b1-6)]GalNAc
# In short: as §1
# [13] = biological target: Neu5Ac(a2-3)Gal(b1-3)[Neu5Ac(a2-6)]GalNAc
# In short: as §1
# [14] = biological target: Neu5Ac(a2-3)Gal(b1-3)[Neu5Ac(a2-6)]GlcNAc(b1-3)[Fuc(a1-3)[Gal(b1-4)]GlcNAc(b1-6)]Gal(b1-4)Glc
# In short: as §1
# [15] = biological target: Neu5Ac(a2-3)Gal(b1-3)]Neu5Ac(a2-3)Gal(b1-4)]GlcNAc
# In short: as §1
# Neu5Ac(a2-3)Gal(b1-4)Glc = biological target: Neu5Ac(a2-3)Gal(b1-4)Glc
# In short: as §1
# [16] = biological target: Neu5Ac(a2-3)Gal(b1-4)GlcNAc
# In short: as §1
# [17] = biological target: Neu5Ac(a2-3)Gal(b1-4)GlcNAc(b1-2)Man
# In short: as §1
# [18] = biological target: Neu5Ac(a2-3)Gal(b1-4)GlcNAc(b1-2)Man(a1-3)[GlcNAc(b1-4)][Neu5Ac(a2-3)Gal(b1-4)GlcNAc(b1-2)Man(a1-6)]Man(b1-4)GlcNAc(b1-4)GlcNAc
# In short: as §1
# [19] = biological target: Neu5Ac(a2-3)Gal(b1-4)GlcNAc(b1-2)Man(a1-3)[Neu5Ac(a2-3)Gal(b1-4)GlcNAc(b1-2)Man(a1-6)]Man(b1-4)GlcNAc(b1-4)GlcNAc
# In short: as §1
# [20] = biological target: Neu5Ac(a2-3)Gal(b1-4)GlcNAc(b1-2)Man(a1-3)[Neu5Ac(a2-3)Gal(b1-4)GlcNAc(b1-2)Man(a1-6)]Man(b1-4)GlcNAc(b1-4)[Fuc(a1-6)]GlcNAc
# In short: as §1
# [21] = biological target: Neu5Ac(a2-3)Gal(b1-4)GlcNAc(b1-2)Man(a1-3)[Neu5Ac(a2-6)Gal(b1-4)GlcNAc(b1-2)Man(a1-6)]Man(b1-4)GlcNAc(b1-4)GlcNAc
# In short: as §1
# [22] = biological target: Neu5Ac(a2-3)Gal(b1-4)GlcNAc(b1-2)[Neu5Ac(a2-3)Gal(b1-4)GlcNAc(b1-4)]Man(a1-3)[GlcNAc(b1-4)][Neu5Ac(a2-3)Gal(b1-4)GlcNAc(b1-2)[Neu5Ac(a2-3)Gal(b1-4)GlcNAc(b1-6)]Man(a1-6)]Man(b1-4)GlcNAc(b1-4)GlcNAc
# In short: as §1
# [23] = biological target: Neu5Ac(a2-3)Gal(b1-4)GlcNAc(b1-2)[Neu5Ac(a2-3)Gal(b1-4)GlcNAc(b1-4)]Man(a1-3)[GlcNAc(b1-4)][Neu5Ac(a2-3)Gal(b1-4)GlcNAc(b1-4)Man(a1-6)]Man(b1-4)GlcNAc(b1-4)GlcNAc
# In short: as §1
# [24] = biological target: Neu5Ac(a2-3)Gal(b1-4)GlcNAc(b1-2)[Neu5Ac(a2-3)Gal(b1-4)GlcNAc(b1-6)]Man(a1-6)[Neu5Ac(a2-3)Gal(b1-4)GlcNAc(b1-2)Man(a1-3)]Man(b1-4)GlcNAc(b1-4)GlcNAc
# In short: as §1
# [25] = biological target: Neu5Ac(a2-3)Gal(b1-4)GlcNAc(b1-2)[Neu5Ac(a2-3)Gal(b1-4)GlcNAc(b1-6)]Man(a1-6)[Neu5Ac(a2-3)Gal(b1-4)GlcNAc(b1-2)Man(a1-3)][GlcNAc(b1-4)]Man(b1-4)GlcNAc(b1-4)GlcNAc
# In short: as §1
# [26] = biological target: Neu5Ac(a2-3)Gal(b1-4)GlcNAc(b1-3)Gal
# In short: as §1
# [27] = biological target: Neu5Ac(a2-3)Gal(b1-4)GlcNAc(b1-3)Gal(b1-3)GlcNAc
# In short: as §1
# [28] = biological target: Neu5Ac(a2-3)Gal(b1-4)GlcNAc(b1-3)Gal(b1-4)GlcNAc
# In short: as §1
# [29] = biological target: Neu5Ac(a2-3)Gal(b1-4)GlcNAc(b1-3)Gal(b1-4)GlcNAc(b1-2)Man(a1-3)[Neu5Ac(a2-3)Gal(b1-4)GlcNAc(b1-3)Gal(b1-4)GlcNAc(b1-2)Man(a1-6)]Man(b1-4)GlcNAc(b1-4)GlcNAc
# In short: as §1
# [30] = biological target: Neu5Ac(a2-3)Gal(b1-4)GlcNAc(b1-3)Gal(b1-4)GlcNAc(b1-3)Gal(b1-4)GlcNAc
# In short: as §1
# [31] = biological target: Neu5Ac(a2-3)Gal(b1-4)GlcNAc(b1-3)Gal(b1-4)GlcNAc(b1-3)Gal(b1-4)GlcNAc(b1-2)Man(a1-3)[Neu5Ac(a2-3)Gal(b1-4)GlcNAc(b1-3)Gal(b1-4)GlcNAc(b1-3)Gal(b1-4)GlcNAc(b1-2)Man(a1-6)]GalNAc
# In short: as §1
# [32] = biological target: Neu5Ac(a2-3)Gal(b1-4)GlcNAc(b1-3)Gal(b1-4)GlcNAc(b1-3)GalNAc
# In short: as §1
# [33] = biological target: Neu5Ac(a2-3)Gal(b1-4)GlcNAc(b1-3)Gal(b1-4)GlcNAc(b1-3)[Neu5Ac(a2-3)Gal(b1-4)GlcNAc(b1-3)Gal(b1-4)GlcNAc(b1-6)]GalNAc
# In short: as §1
# [34] = biological target: Neu5Ac(a2-3)Gal(b1-4)GlcNAc(b1-3)Gal(b1-4)GlcNAc(b1-6)[Gal(b1-3)]GalNAc
# In short: as §1
# [35] = biological target: Neu5Ac(a2-3)Gal(b1-4)GlcNAc(b1-3)Gal(b1-4)[Fuc(a1-3)]GlcNAc
# In short: as §1
# [36] = biological target: Neu5Ac(a2-3)Gal(b1-4)GlcNAc(b1-3)GalNAc
# In short: as §1
# [37] = biological target: Neu5Ac(a2-3)Gal(b1-4)GlcNAc(b1-3)[Neu5Ac(a2-3)Gal(b1-4)GlcNAc(b1-6)]GalNAc
# In short: as §1
binder,measurement,setting,value
B1,glycan array binding signal (z-score),[1],-0.481
same,glycan array binding signal (z-score),[2],0.046
same,glycan array binding signal (z-score),[3],-0.23
same,glycan array binding signal (z-score),[4],0.101
same,glycan array binding signal (z-score),[5],-0.281
same,glycan array binding signal (z-score),[6],-0.406
same,glycan array binding signal (z-score),[7],-0.332
same,glycan array binding signal (z-score),[8],-0.104
same,glycan array binding signal (z-score),[9],-0.342
same,glycan array binding signal (z-score),[10],-0.529
same,glycan array binding signal (z-score),[11],-0.189
same,glycan array binding signal (z-score),[12],-0.183
same,glycan array binding signal (z-score),[13],-0.365
same,glycan array binding signal (z-score),[14],-0.421
same,glycan array binding signal (z-score),[15],-0.153
same,glycan array binding signal (z-score),Neu5Ac(a2-3)Gal(b1-4)Glc,0.215
same,glycan array binding signal (z-score),[16],-0.287
same,glycan array binding signal (z-score),[17],0.612
same,glycan array binding signal (z-score),[18],-0.522
same,glycan array binding signal (z-score),[19],0.207
same,glycan array binding signal (z-score),[20],0.395
same,glycan array binding signal (z-score),[21],-0.326
same,glycan array binding signal (z-score),[22],0.169
same,glycan array binding signal (z-score),[23],0.089
same,glycan array binding signal (z-score),[24],-0.104
same,glycan array binding signal (z-score),[25],-0.111
same,glycan array binding signal (z-score),[26],-0.272
same,glycan array binding signal (z-score),[27],-0.154
same,glycan array binding signal (z-score),[28],0
same,glycan array binding signal (z-score),[29],1.55
same,glycan array binding signal (z-score),[30],0.754
same,glycan array binding signal (z-score),[31],0.005
same,glycan array binding signal (z-score),[32],-0.354
same,glycan array binding signal (z-score),[33],0.257
same,glycan array binding signal (z-score),[34],0.028
same,glycan array binding signal (z-score),[35],0.162
same,glycan array binding signal (z-score),[36],-0.227
same,glycan array binding signal (z-score),[37],-0.349
